In patent publication US20230042509A1, “TREATMENT FOR DISEASES CAUSED BY RNA VIRUSES” (Amerimmune LLC, priority 2021, published 2023):

Biological target: T1, Caspase 1 (Homo sapiens, UniProt P29466)
T1 sequence (P29466 120-297 limits assumed): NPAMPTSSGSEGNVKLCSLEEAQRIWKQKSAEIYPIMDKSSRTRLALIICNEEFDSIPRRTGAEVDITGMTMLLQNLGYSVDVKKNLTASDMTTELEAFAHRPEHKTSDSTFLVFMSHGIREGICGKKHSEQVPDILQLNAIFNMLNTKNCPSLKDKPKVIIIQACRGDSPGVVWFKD
T1 sequence (P29466 317-404 limits assumed): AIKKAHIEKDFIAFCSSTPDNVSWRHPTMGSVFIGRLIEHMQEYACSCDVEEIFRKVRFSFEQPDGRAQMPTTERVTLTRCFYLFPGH
Assay: FLICA flow cytometry of active caspase-1 in PBMCs from Emricasan-treated COVID-19(+) whole blood (Example 7)
Details: 1 μM, 3.5 hours at room temperature, then nigericin 2 hours, CD3-, CD3+CD4+ cells, vs untreated, p≤0.005

For `C[C@H](NC(=O)C(=O)Nc1ccccc1C(C)(C)C)C(=O)N[C@@H](CC(=O)O)C(=O)COc1c(F)c(F)cc(F)c1F` [Emricasan, (3S)-3-{[(2S)-2-{[2-(2-tert-butylanilino)-2-oxoacetyl]amino}propanoyl]amino}-4-oxo-5-(2,3,5,6-tetrafluorophenoxy)pentanoic acid], the “active caspase-1 % positive cells” value was “significant reduction” and the “active caspase-1 MFI” value was “significant reduction”.
